Source: PubChem BioAssay AID1745853 (National Center for Advancing Translational Sciences (NCATS), 2022)
The other results are listed elsewhere or left out. The main result of the screen is listed elsewhere. These columns were measured beside it and carry no call.

How the values were obtained:
Assay in all cases: Primary Screen for Target Class Profiling of Small Molecule Inhibitors of Methyltransferases
[1] = molecular target: Glycine N-methyltransferase (Homo sapiens) (UniProt Q14749); conditions: purified enzyme, MTase-Glo SAH luminescence; measured here: GNMT inhibition; at 40 µM; stronger effect = lower value
Summary of the method: (§1)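 Each enzyme was reacted with SAM and its substrate, with compounds tested once at 40 uM; SAH formed was read by MTase-Glo luminescence.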

[2] = molecular target: Guanidinoacetate N-methyltransferase (Homo sapiens) (UniProt Q14353); conditions: purified enzyme, MTase-Glo SAH luminescence; measured here: GAMT inhibition; at 40 µM; stronger effect = lower value
Summary of the method: as §1

[3] = molecular target: Histamine N-methyltransferase (Homo sapiens) (UniProt P50135); conditions: purified enzyme, MTase-Glo SAH luminescence; measured here: HNMT inhibition; at 40 µM; stronger effect = lower value
Summary of the method: as §1

[4] = molecular target: Nicotinamide N-methyltransferase (Homo sapiens) (UniProt P40261); conditions: purified enzyme, MTase-Glo SAH luminescence; measured here: NNMT inhibition; at 40 µM; stronger effect = lower value
Summary of the method: as §1

[5] = molecular target: Phenylethanolamine N-methyltransferase (Homo sapiens) (UniProt P11086); conditions: purified enzyme, MTase-Glo SAH luminescence; measured here: PNMT inhibition; at 40 µM; stronger effect = lower value
Summary of the method: as §1
% is scaled to controls: 0 for no effect and ±100 for the full control effect.

SMILES | activity change, negative = inhibition [1] | activity change, negative = inhibition [2] | activity change, negative = inhibition [3] | activity change, negative = inhibition [4] | activity change, negative = inhibition [5]
Cc1sc2c(c1C)C(c1ccc(Cl)cc1)=N[C@@H](CC(N)=O)c1nnc(C)n1-2 | 0.396% | -1.11% | 1.67% | -27.4% | -4.98%
Cc1ccccc1NC(=O)N1Cc2ccccc2-n2cccc2C1c1ccc(F)cc1 (stereo not given) | -0.333% | 0.347% | 1.39% | 3.45% | 7.06%
C/C=C(\C)C(=O)O[C@@H]1[C@@H](C)[C@]2(O)C3C=C(C)C(=O)[C@@]3(O)CC(CO)=C[C@H]2C2C(C)(C)[C@@]21OC(=O)C(C)CC (stereo not given in full) | 2.89% | 3.3% | 10.2% | -11.8% | -5.34%
COc1ccc(C2c3cccn3-c3ccccc3CN2C(=O)Nc2ccc(OC)c(OC)c2)cc1 (stereo not given) | 11.2% | 3.84% | 8.33% | 4.17% | 8.34%
O=C(Nc1ccc(F)cc1)N1Cc2ccccc2-n2cccc2C1c1cc(F)cc(F)c1 (stereo not given) | 8.46% | 2.89% | 1.07% | 3.17% | 1.85%
COC(=O)c1ccc(NC(=O)N2Cc3ccccc3-n3cccc3C2c2ccc(OC)c(OC)c2)cc1 (stereo not given) | 4.91% | 0% | -1.79% | -3.78% | 1.38%
CCOc1ccc(C2c3cccn3-c3ccccc3CN2C(=O)NCCc2ccccc2)cc1 (stereo not given) | -1.5% | 0% | -2.21% | 2.83% | 4.07%
CSc1ccc(C2c3cccn3-c3ccccc3CN2C(=O)Nc2cc(Cl)ccc2C)cc1 (stereo not given) | 2.27% | 1.73% | 6.15% | 0.942% | 5.61%
CC1c2cccn2-c2ccccc2CN1C(=O)Nc1ccc(F)c(Cl)c1 (stereo not given) | 7.26% | 0% | 3.79% | -0.621% | 2.98%
CCOC(=O)C1CCC(CNC(=O)N2Cc3ccccc3-n3cccc3C2c2cccs2)CC1 (stereo not given) | 3.01% | 4.4% | -6.09% | -13.1% | -4.94%
COc1ccc(NC(=O)N2Cc3ccccc3-n3cccc3C2c2ccccc2Cl)cc1 (stereo not given) | 9.01% | 1.21% | 3.05% | 0.748% | 3.09%
C=C(C)[C@@H]1[C@H]2OC(=O)[C@H]1[C@]1(O)C[C@H]3O[C@]34C(=O)O[C@H]2[C@]14C | 2.96% | 8.82% | 5.57% | -6.6% | 2.92%
CCOCCCNC(=O)N1Cc2ccccc2-n2cccc2C1c1ccc(OC)cc1 (stereo not given) | 3.98% | 4.48% | -3.32% | -3.54% | -0.299%
CC[C@@H](C)[C@H]1C(=O)O[C@H](C(C)C)C(=O)N(C)[C@@H](C(C)C)C(=O)O[C@H](C(C)C)C(=O)N(C)[C@@H](C(C)C)C(=O)O[C@H](C(C)C)C(=O)N1C | -1.08% | -2.29% | 1.15% | -11.2% | -0.142%
COCC1OC(=O)c2coc3c2C1(C)C1=C(C3=O)C2CCC(=O)C2(C)CC1O (stereo not given) | 0% | 6.54% | 6.96% | -5.4% | 6.1%
Cc1ccc(NC(=O)N2Cc3ccccc3-n3cccc3C2C)cc1F (stereo not given) | 12.3% | 4.09% | 7.41% | 2.67% | 10.6%
Cc1ccc(C)c(NC(=O)N2Cc3ccccc3-n3cccc3C2c2ccc(N(C)C)cc2)c1 (stereo not given) | 4.55% | 0% | 0.392% | 1.56% | 0.593%
COc1ccc(OC)c(NC(=O)N2Cc3ccccc3-n3cccc3C2c2ccccc2C)c1 (stereo not given) | 10.5% | 0% | 6.95% | 6.28% | 6.97%
Nc1cc2c(ncn2CCOCP(=O)(O)O)c(=O)[nH]1 | -0.124% | 10.6% | 1.1% | 1.61% | 10.4%
CO[C@@H]1[C@H](O)[C@@H](O[C@@H]2C[C@H]3CC[C@@H]4C(CC[C@]5(C)[C@@H](C6=CC(=O)OC6)CC[C@]45O)[C@@]3(C)[C@H](O)C2)O[C@H](C)[C@@H]1O[C@@H]1O[C@H](CO)[C@@H](O)[C@H](O)[C@H]1O (stereo not given in full) | 5.11% | 5.73% | 11.1% | -6.65% | 5.68%
COc1ccc(NC(=O)N2Cc3ccccc3-n3cccc3C2c2cc(F)cc(F)c2)cc1OC (stereo not given) | 6.6% | 1.87% | 4.95% | 1.09% | 1.45%
NC(=O)c1ccc(-c2cccc3c2CCNC3)s1 | -2.16% | -3.51% | -43.6% | -1.66% | -14.2%
O=C(Nc1ccc(F)cc1F)N1Cc2ccccc2-n2cccc2C1c1cc(F)cc(F)c1 (stereo not given) | 10.4% | 0% | 4.76% | 5.53% | 7.78%
COC1CCCC(C)OC(=O)Cc2cc(O)cc(O)c2C(=O)C1 (stereo not given) | -0.48% | -15.2% | -5.39% | -19.8% | -1.65%
COC(=O)c1cccc(NC(=O)N2Cc3ccccc3-n3cccc3C2c2cc(F)cc(F)c2)c1 (stereo not given) | 3% | 4.66% | -1.47% | -1.84% | 0.515%
COc1cc2c(cc1CCc1ccccc1)N(C(=O)C(C)C)CC21CCN(C(C)=O)CC1 | -9.98% | -7.74% | -2.7% | -17% | -2.49%
CCOc1ccc(C2c3cccn3-c3ccccc3CN2C(=O)Nc2ccc(Cl)cc2)cc1 (stereo not given) | -2.21% | 4.48% | -3.16% | -8.68% | -3.78%
CC(C)(O)[C@H]1O[C@H]2CC[C@@]3(C)[C@@](O)(CC[C@H]4Cc5c([nH]c6ccccc56)[C@@]43C)C2=CC1=O | -6.63% | -7.36% | 2.46% | -19.7% | -8.38%
